# Test results as given in the supplement of paper PMC12230231.
# ± gives the standard deviation of the averaged measurements. Restriction of a single-cycle SIVsab GFP reporter by TRIM5α v1-loop variants in CRFK cells. Human variants: read share among cells still uninfected after two challenges over input, higher = gained restriction. Rhesus variants: share among infected cells over input, higher = lost restriction. Reporter dose not given per row. No active / inactive call per row; the paper calls a change when both replicates lie above its controls (mean + 2 SD of stop or wild-type variants, or the top frameshift score). Residues outside the varied loop are taken from Swiss-Prot. The paper reads the human single-substitution scores as noise; they and the rhesus combinations repeat poorly (rank correlation 0.3 to 0.4), indel scores repeat only for the top variants, rhesus substitutions well (0.9).
# Tested on: SIVsab (simian immunodeficiency virus of sabaeus monkeys), single-cycle GFP reporter, in CRFK cells
# Test: enrichment among uninfected cells over input (fold); higher = stronger restriction
# Procedure: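 Pools of CRFK cells expressing variants of the TRIM5α v1 loop were challenged with the single-cycle reporter, sorted by GFP and sequenced; mean of two replicates.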
# [1] = library: human / rhesus combinations
# [2] = library: insertions and deletions
Sequence,enrichment [1],enrichment [2]
"MASGILVNVKEEVTCPICLELLTQPLSLDCGHSFCQACLTANHKKSMLDKGESSCPVCRISYQPENIRPNRHVANIVEKLREVKLSPEGQKVDHCARHGEKLLLFCQEDGKVICWLCERSQEHRGHHTFLTEEVAREYQVKLQAALEMLRQKQQEAEELEADIREEKASWKTQIQYDKTNVLADFEQLRDILDWEESNELQNLEKEEEDILKSLTNSETEMVQQTQSLRELISDLEHRLQGSVMELLQGVDGVIKRTENVTLKKPETFPKNQRRVFRAPDLKGMLEVFRELTDVRRYWVDVTVAPNNISCAVISEDKRQVSSPKPQIIYGARGTLFTFQTLTNFNYCTGILGSQSITSGKHYWEVDVSKKTAWILGVCAGFQPDAMCNIEKNENYQPKYGYWVIGLEEGVKCSAFQDSSFHTPSVPFIVPLSVIICPDRVGVFLDYEACTVSFFNITNHGFLIYKFSHCSFSQPVFPYLNPRKCGVPMTLCSPSS [human TRIM5α, 330-340 = GARGTLFTFQTLT]",0.11 ± 0.11,
"MASGILVNVKEEVTCPICLELLTQPLSLDCGHSFCQACLTANHKKSMLDKGESSCPVCRISYQPENIRPNRHVANIVEKLREVKLSPEGQKVDHCARHGEKLLLFCQEDGKVICWLCERSQEHRGHHTFLTEEVAREYQVKLQAALEMLRQKQQEAEELEADIREEKASWKTQIQYDKTNVLADFEQLRDILDWEESNELQNLEKEEEDILKSLTNSETEMVQQTQSLRELISDLEHRLQGSVMELLQGVDGVIKRTENVTLKKPETFPKNQRRVFRAPDLKGMLEVFRELTDVRRYWVDVTVAPNNISCAVISEDKRQVSSPKPQIIYGARGTRYQTFVNFQSITSGKHYWEVDVSKKTAWILGVCAGFQPDAMCNIEKNENYQPKYGYWVIGLEEGVKCSAFQDSSFHTPSVPFIVPLSVIICPDRVGVFLDYEACTVSFFNITNHGFLIYKFSHCSFSQPVFPYLNPRKCGVPMTLCSPSS [human TRIM5α, 9-codon deletion at 343]",,4.03 ± 4.2
"MASGILVNVKEEVTCPICLELLTQPLSLDCGHSFCQACLTANHKKSMLDKGESSCPVCRISYQPENIRPNRHVANIVEKLREVKLSPEGQKVDHCARHGEKLLLFCQEDGKVICWLCERSQEHRGHHTFLTEEVAREYQVKLQAALEMLRQKQQEAEELEADIREEKASWKTQIQYDKTNVLADFEQLRDILDWEESNELQNLEKEEEDILKSLTNSETEMVQQTQSLRELISDLEHRLQGSVMELLQGVDGVIKRTENVTLKKPETFPKNQRRVFRAPDLKGMLEVFRELTDVRRYWVDVTVAPNNISCAVISEDKRQVSSPKPQIIYGARGTLYPTLVNFNYCTGILGSQSITSGKHYWEVDVSKKTAWILGVCAGFQPDAMCNIEKNENYQPKYGYWVIGLEEGVKCSAFQDSSFHTPSVPFIVPLSVIICPDRVGVFLDYEACTVSFFNITNHGFLIYKFSHCSFSQPVFPYLNPRKCGVPMTLCSPSS [human TRIM5α, 330-340 = GARGTLYPTLV]",0.00614 ± 0.0034,
"MASGILVNVKEEVTCPICLELLTQPLSLDCGHSFCQACLTANHKKSMLDKGESSCPVCRISYQPENIRPNRHVANIVEKLREVKLSPEGQKVDHCARHGEKLLLFCQEDGKVICWLCERSQEHRGHHTFLTEEVAREYQVKLQAALEMLRQKQQEAEELEADIREEKASWKTQIQYDKTNVLADFEQLRDILDWEESNELQNLEKEEEDILKSLTNSETEMVQQTQSLRELISDLEHRLQGSVMELLQGVDGVIKRTENVTLKKPETFPKNQRRVFRAPDLKGMLEVFRELTDVRRYWVDVTVAPNNISCAVISEDKRQVSSPKPQIIYGAYGARGTRYQTFVNFNYCTGILGSQSITSGKHYWEVDVSKKTAWILGVCAGFQPDAMCNIEKNENYQPKYGYWVIGLEEGVKCSAFQDSSFHTPSVPFIVPLSVIICPDRVGVFLDYEACTVSFFNITNHGFLIYKFSHCSFSQPVFPYLNPRKCGVPMTLCSPSS [human TRIM5α, 3-codon duplication at 329]",,0.458 ± 0.18
